Experimental data: the RNAGym collection of RNA variant scans (doi:10.1093/nar/gkz1192)
Read counts are not given, so values of variants with three or more changes are uncertain.

B1: CPEB3 Ribozyme (parent)
chain: UAACAGGGGGCCACAGCAGAAGCGUUCACGUCGCAGCCCCUGUCAGAUUCUGGUGAAUCUGCGAAUUCUGCUGUAUAUCUC

Variants of: B1
Assay: self-cleavage, relative activity (ratio to wild type); higher = more cleavage; in vitro, sequencing
How it was run: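 For each CPEB3 ribozyme variant, relative activity is its cleaved/total read fraction divided by the unmutated ribozyme's. Barcoded error-prone PCR libraries were transcribed by T7 RNA polymerase (5 hours, 37°C) and held in DNase I for 15 min before an EDTA stop, with cleavage occurring throughout. Template-switching reverse transcription and Illumina sequencing were used to read the RNAs. A 5-read minimum applied, and results are the mean of three batches.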

Variant | self-cleavage
UAAGAGGGGGCCACAGCAGAAGCGUUCACGUCGCAGCCCCUGUCAGAUUCUGGUGAAUCUGCGGAUUCUGCAGUAUACCUC [C4G A64G U72A U78C] | 0.53
UAAGAGGGGGCGACAGCAGAAGCGUUCGCGUCGCGGCCCCCGUCAGAUUCUGGUGAAUCUGCGAAUUCUGCCGUAUAUCUC [C4G C12G A28G A35G U41C U72C] | 0.32
UAAGAGGGUGCCACAGCAGGAGCGCUCACGUCGCAGCCACUGUCAGAUUCCGGUGAAUCUGCGAAUUCUGCAGUAUAUCUC [C4G G9U A20G U25C C39A U51C U72A] | 0.05
UAAGAGGGGGCCACAGCAGAAGCGUACACGUCGCAGCCCCCGAAAGAUUCUGGUGAAUCUGCGGAUUCUGCUGUAUAUCUC [C4G U26A U41C U43A C44A A64G] | 0.08
UAAGAGGGGGCCACAGCAGAAGCGUUCACGUCGCAGCCCCAGCCAGAUUCUGGUGAAUCUGCGAAUUCAGCUGUAUAUCUC [C4G U41A U43C U69A] | 0.17
UAAGAGGGGGCCACAGCAGAAGCGUUCACGUCGCAGCCCCCGUCAGAUUCUGGUGAAUCUGCGUAUUCUGCUGUAUAUCUC [C4G U41C A64U] | 0.43
UAAGAGGGGGCCACAGCAGAAGCGUUCACGUCGCAGCCCCUGACAGAUUCUAGUGAAUCUGCGAAUUCUGCUAUAUAUCUC [C4G U43A G52A G73A] | 1.27
UAAGAGGGGGCCACAGCAGAAGCGUUCACGUCGCAGCCCCUGACAGAUUCUGGUGAAUCUGCGAAUUCUGCUAUAAAUCUC [C4G U43A G73A U76A] | 1.23
UAAGAGGGGGCCACAGCAGAAGCGUUCACGUCGCAGCCCCUGUCAGAUUCAGGUGAAUCUGCGAAUUCAGCUGUAUACCUC [C4G U51A U69A U78C] | 0.68
UAAGAGGGGGCCACAGCAGAAGCGUUCACGUCGCAGCCCCUGUCAGAUUCUGGAGAAUCUGCGAAUUCUCCCGUUUAUCUC [C4G U54A G70C U72C A75U] | 0.56
UAAUGGGGGGCCUCAGCAGAAGCGUUCACGUCGCAGCCCCUGUCAGAUUCUGGUGAAUCUGCGAAUUCUGCUGUAUAUCUC [C4U A5G A13U] | 1.09
UAAUGGGGGGCCACAGCAGAAGCGUUGACGUCGCAGCCCCUGUCAGAUUCUGGUGAAUCUGCGAAUUCUGCUGUAUAUCUC [C4U A5G C27G] | 0.15
UAAUGGGGGGCCACAGCAGAAGCGUUCACGUCGCAGCCCCCGUUAGAUUCUGGUGAAUCUGCGAAUUCUGCUGUAUAUCUC [C4U A5G U41C C44U] | 0.6
UAAUAGGGGGCCGCAGCAGAAGCGUUCACGUCGCAGCCCCUGUCAGAUUCAGGUGAAUCUGCGAAUUCUGCUGUAUAUCUC [C4U A13G U51A] | 1.03
UAAUAGGGGGCCGCAGCAGAAGCGUUCACGUCGCAGCCCCUGUCAGAUUCUGGCGAAUCUGCGAAUUCUGCUGUAUAUCCC [C4U A13G U54C U80C] | 1.09
UAAUAGGGGGCCUCAGCAGAAGCGUUCACGUCGCAGCCCCUGUCUGAUUCUGGUGGAUCUGCGAUUCCUGCUGUAUAUCUC [C4U A13U A45U A56G A65U U67C] | 0.21
UAAUAGGGGGCCUCAGCAGAAGCGUUCACGUCGCAGCCCCUGUCAGAUUCUGGUGUAUCUGCGAAUUCUGCUGUAUAUCAC [C4U A13U A56U U80A] | 1.16

Variant | self-cleavage
UAAUAGGGGGCCUCAGCAGAAGCGUUCACGUCGCAGCCCCUGUCAGAUUCUGGCGAAUCUGCGAGUUCUGCUGUAUAUCUC [C4U A13U U54C A65G] | 1.02
UAAUAGGGGGCCACGGCAGAAGCGCUCACGACGCAGCCCCUGACAGAUUCCGGUGAAUCUGCGAAUUCUGCUGUAUAUCUC [C4U A15G U25C U31A U43A U51C] | 0.12
UAAUAGGGGGCCACGGCAGAAGCGUUCACGUCGCAGCCCCAGUCAGAUUCUGGUGAAUCUGCGAAUUCUGCUGUAUAUCAC [C4U A15G U41A U80A] | 0.56
UAAUAGGGGGCCACGGCAGAAGCGUUCACGUCGCAGCCCCUGUCAGAUUCUGGUGAAUCUGCGAAUUCUGCUGUAUACCUC [C4U A15G U78C] | 1.11
UAAUAGGGGGCCACAGCGGGUGCGUUCACGUCGCAGCCCCUGUCAGAUUCUGGUGAAUCUGCGAAUUCUGCUGUAUAUCUC [C4U A18G A20G A21U] | 0.15
UAAUAGGGGGCCACAGCUGAAGCGUUCACGUCGCAGCCCCUGUCAGAUUCUGGUGAAUCUGCGAGUUCUGCUGUAUAUCUC [C4U A18U A65G] | 0.41
UAAUAGGGGGCCACAGCUGAAGCGUUCACGUCGCAGCCCCUGUCAGAUUCCGGUGAGUCUGCGAGUUCUGCUGAAUAUCUC [C4U A18U U51C A57G A65G U74A] | 0.53
UAAUAGGGGGCCACAGCAGGAGCGUUCGCGUCGCUGACCCCGUCAGAUUCUGGUGAAUCUGCGAACUCUGCUGUAUAUCUC [C4U A20G A28G A35U C37A U41C U66C] | 0.14
UAAUAGGGGGCCACAGCAGGAGCGUUCAUGCCGCAGCCCCUGUCAGAUUCAGGUGAAUCUGCGAAUUCUGCUGUAUAUCUC [C4U A20G C29U U31C U51A] | 0.35
UAAUAGGGGGCCACAGCAGUAGCGUUCACGUCGCAGCCCCUGUCAGAUUCUGGUGAAUCUGCGAAUUCUGCAGUAUAUCUC [C4U A20U U72A] | 0.29
UAAUAGGGGGCCACAGCAGAUGCGUUCACGUCGCAGCCCCUGUCAGAUUCGGGUGAAUCUGCGAAUUCUGCUGUAUACCUC [C4U A21U U51G U78C] | 0.38
UAAUAGGGGGCCACAGCAGAAGCGUUCCCGUCGCGGCUCCUGUCAGAUUCUGGAGAAUCUGCGAAUUCUGCUGUAUAUCCC [C4U A28C A35G C38U U54A U80C] | 1.14
UAAUAGGGGGCCACAGCAGAAGCGUUCUCGUCGCAGCCCCUGUCAGACUCUGGUGAAUCUGCGAAUUCUGCUGUAUAUCUC [C4U A28U U48C] | 0.6
UAAUAGGGGGCCACAGCAGAAGCGUUCUCGUCGCAGCCCCUGUCAGAUCCUGGUGAAUCUGCGAACUCUGCUGUAUAUCUC [C4U A28U U49C U66C] | 0.18
UAAUAGGGGGCCACAGCAGAAGCGUUCUCGUCGCAGCCCCUGUCAGAUUCUGGAGAAUCUGUGAAUUCUGCUGUAUAUCUC [C4U A28U U54A C62U] | 0.39
UAAUAGGGGGCCACAGCAGAAGCGUUCUCGUCGCAGCCCCUGUCAGAUUCUGGUGAAUCUGCGAAUUCUGCUGUAUAUCCC [C4U A28U U80C] | 1.16
UAAUAGGGGGCCACAGCAGAAGCGUUCACGUCGCAGCCCCUGUCGGAUUCUGGUGAAUCUGCGAAUUCUGCUGUAUAUCAC [C4U A45G U80A] | 1.1
